Reference: the supplement of paper PMC11880418
Structures can show the parent of a compound that is named as a salt. The list shows a part of the results. The data scatter; read single values as rough.

tested on: T84; test: ALDHbr (CSC) cell proportion score relative to DMSO vehicle (ratio to DMSO); breast (SUM159) / gastric (MKN45) / pancreatic (PANC1) / colon cancer lines; ALDHbr cells have high ALDH activity and are rich in cancer stem cells (CSC); higher = more CSC (ALDHbr) cells remaining; settings: 10 µM; 72 h
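Also: High-content imaging of ALDEFLUOR-stained cells with Hoechst-labelled nuclei in 384-well plates, triplicate wells, scored as Z-score against 0.1% DMSO vehicle, negative meaning fewer ALDHbr cells.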

SMILES | ALDHbr
Cc1ccccc1C(OCCN(C)C)c1ccccc1 (configuration not stated) [Orphenadrine hydrochloride] | 0.888
CN(CCCN1c2ccccc2CCc2ccccc21)CC(=O)c1ccc(Cl)cc1 [Lofepramine] | 0.773
COC(=O)C1=C(C)NC(C)=C(C(=O)OCC(C)C)C1c1ccccc1[N+](=O)[O-] (configuration not stated) [Nisoldipine] | 0.44
CC(C)[C@H]1CC[C@H](C(=O)N[C@H](Cc2ccccc2)C(=O)O)CC1 [Nateglinide] | 1
Nc1ncn(C2OC(CO)C(O)C2O)c(=O)n1 (configuration not stated) [Azacytidine-5] | 1.76
CCCCc1oc2ccccc2c1C(=O)c1cc(I)c(OCCN(CC)CC)c(I)c1 [Amiodarone hydrochloride] | 0.198
CC(=O)Oc1cc(C(C)C)c(OCCN(C)C)cc1C [Moxisylyte hydrochoride] | 0.987
O=C(OCCOCCO)c1ccccc1Nc1cccc(C(F)(F)F)c1 [Etofenamate] | 0.909
COCCCOc1cc(C[C@@H](C[C@H](N)[C@@H](O)C[C@H](C(=O)NCC(C)(C)C(N)=O)C(C)C)C(C)C)ccc1OC [Aliskiren hemifumarate] | 0.932
CC1(C)O[C@@H]2C[C@H]3[C@@H]4C[C@H](F)C5=CC(=O)C=C[C@]5(C)[C@H]4[C@@H](O)C[C@]3(C)[C@]2(C(=O)CO)O1 [Flunisolide] | 0.935
CN1CCN(CCCN2c3ccccc3Sc3ccc(C(F)(F)F)cc32)CC1 [Trifluoperazine dihydrochloride] | 0.0881
Nc1ccc(S(=O)(=O)Nc2ncccn2)cc1 [Sulfadiazine] | 0.882
CCCCOc1cc(C(=O)OCCN(CC)CC)ccc1N [Benoxinate hydrochloride] | 0.838
CCCCNc1cc(C(=O)O)cc(S(N)(=O)=O)c1Oc1ccccc1 [Bumetanide] | 0.971
O=P(O)(O)C(O)(Cc1cccnc1)P(=O)(O)O [Risedronic acid monohydrate] | 1.07
CCOC(=O)C1=C(C)NC(C)=C(C(=O)OCC)C1c1ccccc1/C=C/C(=O)OC(C)(C)C [Lacidipine] | 0.714

SMILES | ALDHbr
CC(CN(C)C)CN1c2ccccc2CCc2ccccc21 (configuration not stated) [Trimipramine maleate salt] | 0.791
Cc1cccc(C)c1NC(=O)C1CCCCN1C (configuration not stated) [Mepivacaine hydrochloride] | 1
Cc1[nH]c(=O)c(C#N)cc1-c1ccncc1 [Milrinone] | 0.831
O=C(CCCN1CCC(O)(c2ccc(Cl)cc2)CC1)c1ccc(F)cc1 [Haloperidol] | 0.784
CCc1nn(CCCN2CCN(c3cccc(Cl)c3)CC2)c(=O)n1CCOc1ccccc1 [Nefazodone hydrochloride] | 0.911
CCN(CC)C(=O)N1CCN(C)CC1 [Diethylcarbamazine citrate] | 1.1
CCCC1O[C@@H]2C[C@H]3[C@@H]4CCC5=CC(=O)C=C[C@]5(C)[C@H]4[C@@H](O)C[C@]3(C)[C@]2(C(=O)CO)O1 (some centres not stated) [Budesonide] | 0.793
CCC[C@H](N[C@@H](C)C(=O)N1[C@H](C(=O)O)C[C@@H]2CCCC[C@@H]21)C(=O)OCC [Perindopril] | 1.18
CN(C)CCOC(c1ccccc1)c1ccccc1 [Diphenhydramine hydrochloride] | 1.07
CCOC(=O)OC(C)OC1=C(C(=O)Nc2ccccn2)N(C)S(=O)(=O)c2ccccc21 (configuration not stated) [Ampiroxicam] | 0.884
C#CCN[C@@H]1CCc2ccccc21 [Rasagiline] | 0.846
CC(C)[N+](C)(CCOC(=O)C1c2ccccc2Oc2ccccc21)C(C)C [Propantheline bromide] | 1.02
C=C1c2c(Cl)ccc(O)c2C(O)=C2C(=O)[C@]3(O)C(O)=C(C(N)=O)C(=O)[C@@H](N(C)C)[C@@H]3[C@@H](O)[C@H]12.O=C(O)c1cc(S(=O)(=O)O)ccc1O [Meclocycline sulfosalicylate] | 0.769
COCC1=C(C(=O)OC(C)OC(=O)OC(C)C)N2C(=O)[C@@H](NC(=O)/C(=N\OC)c3csc(N)n3)[C@H]2SC1 (some centres not stated) [Cefpodoxime proxetil] | 0.892
CCOc1ccccc1OC(c1ccccc1)C1CNCCO1 (configuration not stated) [Reboxetine mesylate] | 0.894
CCN(CC)CCOC(=O)c1ccc(N)cc1 [Procaine hydrochloride] | 0.822
